{"source": "the supplement of paper PMC8728848", "test_in_all_cases": "glycan array binding signal (z-score within array); higher = stronger binding", "settings_in_all_cases": "glycan notation: IUPAC condensed, linker removed", "key": {"[1]": {"target": "Gal(a1-3)Gal(b1-4)[Fuc(a1-3)]GlcNAc", "method_in_brief": "(§1)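 Glycan array data came from 3228 arrays in the Consortium for Functional Glycomics database, and only arrays with an available protein sequence were kept. Glycan names were put into IUPAC-condensed notation, and columns mapping to the same glycan were averaged. The binding signal is a within-array Z-score, averaged across arrays of one protein sequence run at different concentrations or buffers and across linkers. A negative Z-score can be read as non-binding.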"}, "Gal(a1-3)GalNAc": {"target": "Gal(a1-3)GalNAc", "method_in_brief": "as §1"}, "[2]": {"target": "Gal(a1-3)[Gal(a1-4)]Gal(b1-4)GlcNAc", "method_in_brief": "as §1"}, "Gal(a1-4)Gal(b1-4)Glc": {"target": "Gal(a1-4)Gal(b1-4)Glc", "method_in_brief": "as §1"}, "Gal(a1-4)Gal(b1-4)GlcNAc": {"target": "Gal(a1-4)Gal(b1-4)GlcNAc", "method_in_brief": "as §1"}, "Gal(a1-4)GlcNAc": {"target": "Gal(a1-4)GlcNAc", "method_in_brief": "as §1"}, "Gal(a1-6)Glc": {"target": "Gal(a1-6)Glc", "method_in_brief": "as §1"}, "Gal(b1-2)Gal": {"target": "Gal(b1-2)Gal", "method_in_brief": "as §1"}, "Gal(b1-3)Gal": {"target": "Gal(b1-3)Gal", "method_in_brief": "as §1"}, "Gal(b1-3)GalNAc": {"target": "Gal(b1-3)GalNAc", "method_in_brief": "as §1"}, "[3]": {"target": "Gal(b1-3)GalNAc(b1-4)Gal(b1-4)Glc", "method_in_brief": "as §1"}, "[4]": {"target": "Gal(b1-3)GalNAc(b1-4)[Neu5Ac(a2-3)]Gal(b1-4)Glc", "method_in_brief": "as §1"}, "Gal(b1-3)GlcNAc": {"target": "Gal(b1-3)GlcNAc", "method_in_brief": "as §1"}, "[5]": {"target": "Gal(b1-3)GlcNAc(b1-3)Gal(b1-4)Glc", "method_in_brief": "as §1"}, "[6]": {"target": "Gal(b1-3)[Fuc(a1-4)]GlcNAc", "method_in_brief": "as §1"}, "[7]": {"target": "Gal(b1-3)[GlcNAc(b1-6)]GalNAc", "method_in_brief": "as §1"}, "[8]": {"target": "Gal(b1-3)[Neu5Ac(a2-6)]GalNAc", "method_in_brief": "as §1"}, "[9]": {"target": "Gal(b1-3)[Neu5Ac(a2-6)]GlcNAc(b1-4)Gal(b1-4)Glc", "method_in_brief": "as §1"}, "[10]": {"target": "Gal(b1-3)[Neu5Ac(b2-6)]GalNAc", "method_in_brief": "as §1"}, "[11]": {"target": "Gal(b1-4)GalNAc(a1-3)[Fuc(a1-2)]Gal(b1-4)GlcNAc", "method_in_brief": "as §1"}, "Gal(b1-4)Glc": {"target": "Gal(b1-4)Glc", "method_in_brief": "as §1"}, "Gal(b1-4)Glc6S": {"target": "Gal(b1-4)Glc6S", "method_in_brief": "as §1"}, "Gal(b1-4)GlcNAc": {"target": "Gal(b1-4)GlcNAc", "method_in_brief": "as §1"}, "[12]": {"target": "Gal(b1-4)GlcNAc(b1-3)Gal(b1-4)Glc", "method_in_brief": "as §1"}, "[13]": {"target": "Gal(b1-4)GlcNAc(b1-3)Gal(b1-4)GlcNAc", "method_in_brief": "as §1"}, "[14]": {"target": "Gal(b1-4)GlcNAc(b1-3)Gal(b1-4)GlcNAc(b1-3)Gal(b1-4)GlcNAc", "method_in_brief": "as §1"}, "[15]": {"target": "Gal(b1-4)GlcNAc(b1-3)Gal(b1-4)[Fuc(a1-3)]GlcNAc(b1-3)Gal(b1-4)[Fuc(a1-3)]GlcNAc", "method_in_brief": "as §1"}, "[16]": {"target": "Gal(b1-4)GlcNAc(b1-3)GalNAc", "method_in_brief": "as §1"}, "[17]": {"target": "Gal(b1-4)GlcNAc(b1-3)[Gal(b1-4)GlcNAc(b1-6)]GalNAc", "method_in_brief": "as §1"}, "[18]": {"target": "Gal(b1-4)GlcNAc(b1-6)GalNAc", "method_in_brief": "as §1"}, "[19]": {"target": "Gal(b1-4)GlcNAc(b1-6)[Gal(b1-3)]GalNAc", "method_in_brief": "as §1"}, "Gal3S(b1-3)GalNAc": {"target": "Gal3S(b1-3)GalNAc", "method_in_brief": "as §1"}, "Gal3S(b1-3)GlcNAc": {"target": "Gal3S(b1-3)GlcNAc", "method_in_brief": "as §1"}, "[20]": {"target": "Gal3S(b1-3)[Fuc(a1-4)]GlcNAc", "method_in_brief": "as §1"}, "Gal3S(b1-4)Glc": {"target": "Gal3S(b1-4)Glc", "method_in_brief": "as §1"}, "Gal3S(b1-4)Glc6S": {"target": "Gal3S(b1-4)Glc6S", "method_in_brief": "as §1"}, "Gal3S(b1-4)GlcNAc": {"target": "Gal3S(b1-4)GlcNAc", "method_in_brief": "as §1"}, "Gal4S(b1-4)GlcNAc": {"target": "Gal4S(b1-4)GlcNAc", "method_in_brief": "as §1"}, "Gal6S(b1-4)Glc": {"target": "Gal6S(b1-4)Glc", "method_in_brief": "as §1"}, "Gal6S(b1-4)Glc6S": {"target": "Gal6S(b1-4)Glc6S", "method_in_brief": "as §1"}, "GalNAc(a1-3)Gal": {"target": "GalNAc(a1-3)Gal", "method_in_brief": "as §1"}, "GalNAc(a1-3)GalNAc": {"target": "GalNAc(a1-3)GalNAc", "method_in_brief": "as §1"}, "GalNAc(b1-3)GalNAc": {"target": "GalNAc(b1-3)GalNAc", "method_in_brief": "as §1"}, "GalNAc(b1-4)GlcNAc": {"target": "GalNAc(b1-4)GlcNAc", "method_in_brief": "as §1"}, "Glc(a1-4)Glc": {"target": "Glc(a1-4)Glc", "method_in_brief": "as §1"}}, "note": "This is one part of the list."}
{"binder": "TES70 (Toxocara canis), Q9XYV5 (protein) MISVVLVAIALQISGSYAGACNSINDCGLFETCVNNMCVPDNMGCPMPCQAGQVCVPPNCVAAPAPQPVTTTTAAATTTTSARGRCNANAQCGAFEVCVNGMCQPNNAGCNPPCAANQVCVAPNCVPAPIPPPAQSTTTAPATTRAPPSCPPSWSPFSGHCYYVAVGSFLFNQASDWCTQTNSRPVWFDQSNVGTFGAELYFINVLAASRGVQTYWLGLNRQFGQWVWTNGSPLIFSNWRGSEPDGCCGGNVTCALVNYANPFGQWDDAGCGNIWRNPQGFICKKPLA", "values": [{"measurement": "glycan array binding signal (z-score)", "setting": "[1]", "result": 0.163}, {"measurement": "glycan array binding signal (z-score)", "setting": "Gal(a1-3)GalNAc", "result": -0.119}, {"measurement": "glycan array binding signal (z-score)", "setting": "[2]", "result": -0.153}, {"measurement": "glycan array binding signal (z-score)", "setting": "Gal(a1-4)Gal(b1-4)Glc", "result": 0.055}, {"measurement": "glycan array binding signal (z-score)", "setting": "Gal(a1-4)Gal(b1-4)GlcNAc", "result": -0.104}, {"measurement": "glycan array binding signal (z-score)", "setting": "Gal(a1-4)GlcNAc", "result": -0.043}, {"measurement": "glycan array binding signal (z-score)", "setting": "Gal(a1-6)Glc", "result": -0.167}, {"measurement": "glycan array binding signal (z-score)", "setting": "Gal(b1-2)Gal", "result": -0.118}, {"measurement": "glycan array binding signal (z-score)", "setting": "Gal(b1-3)Gal", "result": -0.141}, {"measurement": "glycan array binding signal (z-score)", "setting": "Gal(b1-3)GalNAc", "result": -0.108}, {"measurement": "glycan array binding signal (z-score)", "setting": "[3]", "result": -0.09}, {"measurement": "glycan array binding signal (z-score)", "setting": "[4]", "result": -0.126}, {"measurement": "glycan array binding signal (z-score)", "setting": "Gal(b1-3)GlcNAc", "result": -0.115}, {"measurement": "glycan array binding signal (z-score)", "setting": "[5]", "result": -0.155}, {"measurement": "glycan array binding signal (z-score)", "setting": "[6]", "result": -0.111}, {"measurement": "glycan array binding signal (z-score)", "setting": "[7]", "result": -0.137}, {"measurement": "glycan array binding signal (z-score)", "setting": "[8]", "result": 0.002}, {"measurement": "glycan array binding signal (z-score)", "setting": "[9]", "result": -0.193}, {"measurement": "glycan array binding signal (z-score)", "setting": "[10]", "result": -0.145}, {"measurement": "glycan array binding signal (z-score)", "setting": "[11]", "result": -0.161}, {"measurement": "glycan array binding signal (z-score)", "setting": "Gal(b1-4)Glc", "result": -0.064}, {"measurement": "glycan array binding signal (z-score)", "setting": "Gal(b1-4)Glc6S", "result": -0.122}, {"measurement": "glycan array binding signal (z-score)", "setting": "Gal(b1-4)GlcNAc", "result": -0.107}, {"measurement": "glycan array binding signal (z-score)", "setting": "[12]", "result": -0.131}, {"measurement": "glycan array binding signal (z-score)", "setting": "[13]", "result": -0.133}, {"measurement": "glycan array binding signal (z-score)", "setting": "[14]", "result": -0.116}, {"measurement": "glycan array binding signal (z-score)", "setting": "[15]", "result": -0.168}, {"measurement": "glycan array binding signal (z-score)", "setting": "[16]", "result": -0.136}, {"measurement": "glycan array binding signal (z-score)", "setting": "[17]", "result": -0.115}, {"measurement": "glycan array binding signal (z-score)", "setting": "[18]", "result": 0.229}, {"measurement": "glycan array binding signal (z-score)", "setting": "[19]", "result": -0.106}, {"measurement": "glycan array binding signal (z-score)", "setting": "Gal3S(b1-3)GalNAc", "result": -0.126}, {"measurement": "glycan array binding signal (z-score)", "setting": "Gal3S(b1-3)GlcNAc", "result": -0.204}, {"measurement": "glycan array binding signal (z-score)", "setting": "[20]", "result": -0.117}, {"measurement": "glycan array binding signal (z-score)", "setting": "Gal3S(b1-4)Glc", "result": -0.131}, {"measurement": "glycan array binding signal (z-score)", "setting": "Gal3S(b1-4)Glc6S", "result": -0.137}, {"measurement": "glycan array binding signal (z-score)", "setting": "Gal3S(b1-4)GlcNAc", "result": -0.182}, {"measurement": "glycan array binding signal (z-score)", "setting": "Gal4S(b1-4)GlcNAc", "result": -0.14}, {"measurement": "glycan array binding signal (z-score)", "setting": "Gal6S(b1-4)Glc", "result": -0.045}, {"measurement": "glycan array binding signal (z-score)", "setting": "Gal6S(b1-4)Glc6S", "result": -0.188}, {"measurement": "glycan array binding signal (z-score)", "setting": "GalNAc(a1-3)Gal", "result": -0.128}, {"measurement": "glycan array binding signal (z-score)", "setting": "GalNAc(a1-3)GalNAc", "result": -0.203}, {"measurement": "glycan array binding signal (z-score)", "setting": "GalNAc(b1-3)GalNAc", "result": -0.148}, {"measurement": "glycan array binding signal (z-score)", "setting": "GalNAc(b1-4)GlcNAc", "result": -0.165}, {"measurement": "glycan array binding signal (z-score)", "setting": "Glc(a1-4)Glc", "result": -0.15}]}
